Results: PubChem BioAssay AID504466 (National Center for Advancing Translational Sciences (NCATS), 2011)
In all, about 330,000 compounds went through this assay and about 4,200 (1.3%) were called active. Inconclusive results, whose numbers are uncertain, are shown with a selection of clear calls. The call rests on the fitted dose curve; in most records, active means well fitted activation curve with a large enough effect; inconclusive means small, poorly fitted or top-dose-only effect; inactive means no such curve, though single readings can be large or run the other way. Where the call is inconclusive, the potency comes from a doubtful curve fit.

assay: qHTS screen for small molecules that induce genotoxicity in human embryonic kidney (HEK293T) cells expressing luciferase-tagged ELG1; details: HEK293T ELG1-luciferase reporter, luminescence, 16 h; series mostly up to 46 µM; further: nearly all actives have a fitted effect of over 60% in size
Method in brief: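 Genotoxicity was scored as increased ELG1-luciferase reporter signal, measured by ONE-Glo luminescence (30 min, room temperature). Compound or vehicle exposure of the HEK293T reporter cells lasted 16 hr at 37°C.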
Potency means the concentration at half of the fitted maximal effect; tags describe the fitted curve by direction and shape.

SMILES | Potency
Cc1cc(C(=O)N=Nc2c(O)n(C(C)C)c3ccccc23)n[nH]1 | inactive
Cc1cc(C(=O)CN2C(=O)NC(CC(C)C)C2=O)c(C)n1-c1ccccc1F (stereo unspecified) | inconclusive: 16.4 µM [activator, partial curve]
CC(=O)Nc1c(C(=O)Nc2ccc3c(c2)OCO3)oc2ccccc12 | inconclusive: 4.61 µM [activator, partial curve]
Cc1ccc(/C=N\NC(=O)c2csnn2)cc1 | inconclusive: 9.2 µM [activator, partial curve]
CC(=O)Nc1cccc(NC(=O)Nc2ccc(C(C)=O)cc2)c1 | inconclusive: 20.6 µM [activator, single point]
Cc1ccc(NC(=S)N2CCC(c3ccccc3)C2)c(Cl)c1 (stereo unspecified) | active: 2.31 µM
Cc1csc(NC(=O)C2=COCCO2)n1 | inconclusive: 18.3 µM [activator, partial curve, poor fit]
Nc1ccccc1Sc1nc2ccccc2[nH]1 | inconclusive: 31.6 µM [activator, partial curve, poor fit]
CC(=O)CSc1ccc(-c2nc3ccccc3[nH]2)cn1 | inconclusive: 0.58 µM [activator, full curve]
O=c1oc2ccccc2cc1-c1nc(-c2cccs2)cs1 | inconclusive: 29.1 µM [activator, partial curve, poor fit]
CCC(=O)Nc1ccc(-c2csc(NNC(C)=O)n2)cc1 | inactive
c1cc2c(cn1)cnc1cscc12 | inactive
Cc1cc2nn(-c3cccc4ccccc34)nc2cc1NC(=O)c1cccs1 | inactive
O=C(OC1CCCCC1)c1cc2ccccc2oc1=O | inconclusive: 23.1 µM [activator, partial curve]
CC(C)(C)c1ccc(-c2csc(NC(=O)CN3C(=O)NC4(CCCCC4)C3=O)n2)cc1 | inconclusive: 15.8 µM [activator, single point]
Cc1cc(C)c2c(N)c(C(=O)Nc3ncc(C)s3)sc2n1 | inconclusive: 0.0291 µM [activator, full curve, poor fit]
O=C(Nc1ccc(-c2nc3cccnc3s2)cc1)c1ccco1 | active: 0.92 µM
O=[N+]([O-])c1ccccc1Nc1nc(-c2cccnc2)cs1 | inconclusive: 25.9 µM [activator, partial curve, poor fit]
O=C(/C=C/c1ccccc1)CC(=O)c1ccccc1O | inconclusive: 25.9 µM [activator, partial curve, poor fit]
Cc1cc(OCC(=O)NC2CC(C)(C)NC(C)(C)C2)c2c(C)c(C)c(=O)oc2c1 | inconclusive: 20.6 µM [activator, partial curve, poor fit]
O=C(Nc1ccc(OC(=O)c2cccs2)cc1)c1ccco1 | inconclusive: 18.4 µM [activator, partial curve, poor fit]
CCc1nc(SCc2ccc(OCC(C)C)cc2)n[nH]1 | inconclusive: 18.3 µM [activator, single point]
COc1cccc(/C=N/NC(=O)CNC(=O)COc2cccc(C)c2)c1O | inactive
CN=c1scc(-c2ccc(Br)cc2)n1C | inactive

SMILES | Potency
COc1cc(-c2nnn(CC(=O)NC3CCS(=O)(=O)C3)n2)ccc1OCc1ccccc1 (stereo unspecified) | inconclusive: 4.61 µM [activator, partial curve, poor fit]
COc1cccc(C(=O)NCCSCc2c(F)cccc2Cl)c1 | inconclusive: 23.1 µM [activator, partial curve, poor fit]
c1ccc(-c2nc3cc4ccccc4cc3[nH]2)nc1 | active: 0.231 µM
CCc1ccc2oc(-c3cc(N)cc(C)c3O)nc2c1 | inconclusive: 9.2 µM [activator, partial curve]
CCN(CC)S(=O)(=O)c1ccc(C)c(NC(=O)Cn2c(=O)cnc3ccccc32)c1 | inactive
CCOC(=O)c1c(Nc2ccc(Cl)cc2)sc(/C=C2\C=Nc3ccccc32)c1O | inconclusive: 10.3 µM [activator, partial curve, poor fit]
Nc1ccc(-c2nc3ncccc3o2)c(O)c1 | inconclusive: 11.6 µM [activator, partial curve]
Cc1cc(Nc2ccccc2)n(C(=O)c2ccccc2)n1 | inconclusive: 23.1 µM [activator, single point]
O=C(Nc1ccc(CN2CCCCC2)cc1)c1ccc2c(c1)OCO2 | inconclusive: 16.4 µM [activator, partial curve, poor fit]
Cc1cc(NC(=O)CSc2ccc(-c3ccc4c(c3)OCO4)nn2)no1 | inconclusive: 23.1 µM [activator, partial curve, poor fit]
CCCc1cc(C(=O)Nc2cc(Br)ccc2O)no1 | active: 13 µM
COC(=O)c1ccc(N2C(=O)CC(SCCN)C2=O)cc1 (stereo unspecified) | active: 11.6 µM
Cc1nc(-c2ccc3c(c2)OCCO3)cs1 | inconclusive: 13 µM [activator, partial curve, poor fit]
COc1ncnc2c1oc1ccccc12 | inconclusive: 14.6 µM [activator, partial curve, poor fit]
Cc1ccc(SC(C)C(=O)NC(N)=O)c(C)c1 (stereo unspecified) | inactive
O=C(CSc1n[nH]c(=O)n1Cc1ccco1)c1ccc2c(c1)OCCO2 | inconclusive: 25.9 µM [activator, partial curve, poor fit]
CC(C)(C)C(=O)Nc1cc2nn(-c3ccccc3)nc2cc1Cl | inconclusive: 0.0731 µM [activator, full curve]
CC1=CC(C)(C)N(S(=O)(=O)c2ccc(C)cc2)c2cc(C)ccc21 | inconclusive: 2.31 µM [activator, partial curve, poor fit]
Cn1c(NC(=O)c2ccc(C(C)(C)C)cc2)cc(=O)n(C)c1=O | active: 9.2 µM
COCCn1c(N)c(N(Cc2ccccc2)C(=O)C2=COCCO2)c(=O)[nH]c1=O | inactive
O=C(/C=C/c1ccc(O)c(O)c1)c1ccccc1O | inconclusive: 10.3 µM [activator, partial curve]
CCc1nnc(NC(=O)C2Cc3ccccc3CN2S(=O)(=O)c2cccs2)s1 (stereo unspecified) | inconclusive: 11.2 µM [activator, partial curve]
Cc1ccc(NC(=O)c2nnn(-c3ccc4c(c3)OCCO4)c2N)cc1 | inconclusive: 2.31 µM [activator, partial curve, poor fit]
Brc1ccccc1C1N=C(c2ccccc2)NO1 (stereo unspecified) | inconclusive: 10.3 µM [activator, partial curve]

SMILES | Potency
Nc1ccc2oc(=O)c3ccccc3c2c1 | inconclusive: 13 µM [activator, partial curve, poor fit]
CCOC(=O)c1csc(NC(=O)c2ccccc2)n1 | active: 8.2 µM
CC1CCC/C(=C\Nc2ccc(C(=O)O)c(O)c2)C1=O (stereo unspecified) | inconclusive: 20.6 µM [activator, single point]
CCOc1ccc(-c2ccc(SCC)nn2)cc1 | active: 1.16 µM
CC1=CN2C(=N)/C(=C/c3ccc(Sc4ccc(C)cc4)o3)C(=O)N=C2S1 | inactive
O=C(O)COn1c(-c2ccc(Cl)cc2)nc2ccc(Cl)cc21 | inconclusive: 20.6 µM [activator, single point]
COC(=O)C(Cc1ccc(OC(=O)c2ccc(Cl)cc2)cc1)N1Cc2ccccc2C1=O (stereo unspecified) | inconclusive: 9.2 µM [activator, partial curve, poor fit]
CSCCC(=O)N1CCN(CC(=O)N2CCCC2)CC1 | inactive
CSc1cccc(NC(=O)Nc2ccccc2)c1 | inconclusive: 10 µM [activator, partial curve]
C=CCNC(=O)/C=C/c1ccc(C(C)C)cc1 | inconclusive: 18.4 µM [activator, single point]
C[C@H]1CN([C@@H](C)CO)C(=O)Cc2cc(NS(=O)(=O)c3ccc(Cl)cc3)ccc2O[C@@H]1CN(C)C(=O)Nc1cccc2ccccc12 | inactive
CCN(CC(=O)Nc1ccc(NC(C)=O)cc1)C(=O)CCCOc1ccc(C(C)(C)C)cc1 | inconclusive: 20.6 µM [activator, single point]
COc1ccc(-c2cc3ncnc(Cl)c3s2)cc1 | inconclusive: 11.6 µM [activator, partial curve]
CN1N=C2c3ccccc3CCC2C1c1ccc(Cl)cc1 (stereo unspecified) | inconclusive: 23.1 µM [activator, partial curve, poor fit]
COC(=O)c1cccc(Nc2c3c(nc4ccccc24)CCC3)c1 | inactive
O=C(COC(=O)CC1SC(N2CCCC2)=NC1=O)Nc1ccc(Br)cc1 (stereo unspecified) | inactive
COc1ccc(C2=NO[C@@H]3C(=O)N(c4ccc5c(c4)OCCO5)C(=O)[C@H]23)cc1OC | inconclusive: 20.6 µM [activator, single point]
NC(=O)c1ccc(NC(=O)COC(=O)c2ccccc2Nc2ccccc2)cc1 | inconclusive: 18.3 µM [activator, partial curve, poor fit]
NC(=O)c1ccc(N2CCCCCC2)c([N+](=O)[O-])c1 | inactive
CCN(CC)C(=O)C(=O)Nc1cccc(Br)c1 | inconclusive: 20.6 µM [activator, partial curve, poor fit]
Cc1ccc(C(=O)CNc2cccc(Cl)c2)cc1 | inconclusive: 20.6 µM [activator, single point]
CCN1C(=O)c2cccc3c(S(=O)(=O)Nc4ccncc4)ccc1c23 | inconclusive: 25.9 µM [activator, single point]
Cc1nc(Nc2ccc(C(=O)O)cc2)sc1-c1ccccc1 | inconclusive: 0.164 µM [activator, full curve]
